From the supplement of paper PMC10600219
Where “and” joins values, the source holds several entries; their conditions need not be identical. Equal values may be shown once. Where a name gives a salt, the structure may show the parent alone. ± gives the standard deviation of the averaged measurements. In all, about 2,800 compounds were measured (“cell viability relative to vehicle”: median about 1.1, lowest 2% from about 0.19 on). The list shows a part of the results.

test system: NCI-H2228 parental; assay: cell viability relative to vehicle (fraction of vehicle); NCI-H2228 is an ALK-positive lung cancer line and DTP means drug-tolerant persister; higher = less growth inhibition; details: 100 nM; treatment time 6 days
Outline: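 NCI-H2228 parental cells and drug-tolerant persister cells were plated in 384-well plates; the persisters had been generated with 1000 nM of a targeted drug over 13 days. One day later, the 3114-agent TargetMol anti-cancer compound library was added at 100 nM, with DMSO serving as vehicle. ATP was measured 6 days after that using the CellTiter-Glo 3D Cell Viability Assay. Values are cell viability expressed relative to vehicle-treated cells.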

Point of comparison: `CC1OC2(CS1)CN1CCC2CC1` (centres undefined) [Cevimeline hydrochloride hemihydrate], cell viability 0.887. Against it:
- CC(=O)OCC1=CO[C@@H](OC(=O)CC(C)C)[C@H]2C1=C[C@H](OC(=O)CC(C)(C)OC(C)=O)[C@]21CO1 [Acevaltrate] — higher, 1.04
- CC[C@H](C)[C@H](N)C(=O)O [isoleucine] — higher, 1.16
- CCOc1nc2cccc(C(=O)O)c2n1Cc1ccc(-c2ccccc2-c2nnn[nH]2)cc1 [Candesartan] — higher, 1.24
- CCOC(=O)N1CCC(CN(Cc2ccc(Cl)cc2)Cc2ccc([N+](=O)[O-])s2)C1 (centres undefined) — higher, 0.991
- O=C(Oc1cccc(F)c1OC(=O)c1cccc(O)c1)c1cccc(O)c1 — higher, 1.11
- CCCNC(=O)c1cn2ncnc(Nc3cc(C(=O)NC4CC4)ccc3C)c2c1C — higher, 1.1
- O=C(Nc1cccnc1)c1cc(-c2ccnc(F)c2)ccc1OCc1ccccc1 — higher, 1.09
- CN(C)CCC(c1ccc(Br)cc1)c1ccccn1 (centres undefined) [Brompheniramine hydrogen maleate] — higher, 1.09
- COc1cc2c(cc1O)CC[n+]1cc3c(OC)c(OC)ccc3cc1-2 [Jatrorrhizine] — higher, 1.06
- c1ccc(-c2ccc(C(c3ccccc3)n3ccnc3)cc2)cc1 (centres undefined) [Bifonazole] — higher, 1.08
- COc1cc2ncnc(Nc3cccc(Cl)c3F)c2cc1OC(=O)N1CCN(C)C[C@H]1C — higher, 1.06
- COc1cc2ncnc(Nc3cccc(Cl)c3F)c2cc1OC(=O)N1CCN(C)C[C@H]1C [AZD3759 hydrochloride] — higher, 1.1
- CCCCCCCCCC(=O)CC(O)S(=O)(=O)O (centres undefined) [Sodium houttuyfonate] — higher, 1.09
- CC(C)Oc1ccc(-c2nn([C@@H](C)c3oc4ccc(F)cc4c(=O)c3-c3cccc(F)c3)c3ncnc(N)c23)cc1F — higher, 1.01
- CC(C)=CC(=O)CCC(=O)N1CCN(Cc2cc3nc(-c4cccc5[nH]ncc45)nc(N4CCOCC4)c3s2)CC1 — higher, 1.01
- CC(=O)OC[C@H]1O[C@@H]([S-])[C@H](OC(C)=O)[C@@H](OC(C)=O)[C@@H]1OC(C)=O.CCP(CC)CC.[Au+] [Auranofin] — higher, 0.905
- COc1cc(Nc2c(C#N)cnc3cc(OCCCN4CCN(C)CC4)c(OC)cc23)c(Cl)cc1Cl [Bosutinib] — higher, 1.06
- CCCCc1oc2ccc(NS(C)(=O)=O)cc2c1C(=O)c1ccc(OCCCN(CCCC)CCCC)cc1 [Dronedarone hydrochloride] — higher, 1.07
- COc1ccc(C(c2c[nH]c3ccccc23)c2c[nH]c3ccccc23)cc1 — higher, 1.05
- CCC1(c2ccccc2)C(=O)NCNC1=O [Primidone] — higher, 1.16
- CCCCCCCCNc1cc(=O)[nH]c(=O)[nH]1 — higher, 1.01
- CCOC(=O)[C@H]1O[C@@H]1C(=O)N[C@@H](CC(C)C)C(=O)NCCC(C)C [Aloxistatin] — higher, 1.12
- Cc1noc(-c2ccc(-c3ccc(CC(=O)O)cc3)cc2)c1NC(=O)OC(C)c1ccccc1Cl (centres undefined) — higher, 0.97
- CCN1CCN(Cc2ccc(NC(=O)Nc3ccc(Oc4cc(NC)ncn4)cc3)cc2C(F)(F)F)CC1 — higher, 1.19
- CC(C)NCC(O)COc1ccc(CC(N)=O)cc1 (centres undefined) [Atenolol] — higher, 1.1
- COCC(=O)NC/C=C/c1ccc2ncnc(Nc3ccc(Oc4ccc(C)nc4)c(C)c3)c2c1 — higher, 0.991
- CC(C)(O)[C@H]1CC[C@H](Nc2ccc3ncc(-c4cccc(C(F)(F)F)c4)n3n2)CC1 — higher, 0.928
- Cn1c(=O)c2c(ncn2CC2OCCO2)n(C)c1=O [Doxofylline] — higher, 1.2
- Oc1cc2c(cc1O)C(c1ccccc1)CNCC2 (centres undefined) — higher, 0.982
- Cc1ccc([C@@H]2O[C@H](CO)[C@@H](O)[C@H](O)[C@H]2O)cc1Cc1ccc(-c2ccc(F)cc2)s1 [Canagliflozin] — higher, 1.05
- C=C1C(=O)O[C@@H]2C[C@@]3(C)CCCC(=C)[C@@H]3C[C@H]12 [Isoalantolactone] — higher, 0.94
- CC(C)(C)c1cc(C(C)(C)C)c(NC(=O)c2c[nH]c3ccccc3c2=O)cc1O [Ivacaftor] — lower, 0.825
- CC(C)NC[C@@H](C(=O)N1CCN(c2ncnc3c2[C@H](C)C[C@H]3O)CC1)c1ccc(Cl)cc1 [Ipatasertib] — higher, 1
- CN1CCN(CC(=O)N2c3ccccc3C(=O)Nc3cccnc32)CC1 [Pirenzepine dihydrochloride] — higher, 1.32
- CCCc1cc(C)[nH]c(=O)c1CNC(=O)c1cc(-c2ccnc(N3CCN(C)CC3)c2)cc2c1cnn2C(C)C — higher, 1.09
- C=CCNc1ncnc2ccc(Br)cc12 — higher, 1.1
- CC(C)=CCC[C@](C)(O[C@@H]1O[C@H](CO)[C@@H](O)[C@H](O)[C@H]1O)[C@H]1CC[C@]2(C)[C@@H]1[C@H](O)C[C@@H]1[C@@]3(C)CC[C@H](O[C@@H]4O[C@H](CO)[C@@H](O)[C@H](O)[C@H]4O[C@@H]4O[C@H](CO)[C@@H](O)[C@H](O)[C@H]4O)C(C)(C)[C@@H]3CC[C@]12C [Ginsenoside Rd] — higher, 1.18
- OCC(CO)N[C@H]1C[C@](O)(CO)[C@@H](O)[C@H](O)[C@H]1O [Voglibose] — higher, 1.01
- Cc1cc(Nc2ncnc3ccc(NC4=NC(C)(C)CO4)cc23)ccc1Oc1ccn2ncnc2c1 [Irbinitinib] — higher, 1.09
- CCc1ccc(/C=C2/SC(=S)NC2=O)cc1 — higher, 1.14
- Cc1ccc(Nc2nccc(N(C)c3ccc4c(C)n(C)nc4c3)n2)cc1S(N)(=O)=O [Pazopanib] — higher, 1.19
- CCCCC(=O)N(Cc1ccc(-c2ccccc2-c2nnn[nH]2)cc1)[C@H](C(=O)O)C(C)C [Valsartan] — higher, 0.983
- COc1cc(Nc2ncc3c(n2)-c2ccc(Cl)cc2C(c2c(F)cccc2OC)=NC3)ccc1C(=O)O [Alisertib] — lower, 0.236
- OC(CCN1CCCCC1)(c1ccccc1)c1ccccc1 [Loxeen] — higher, 1.07
- CN1c2ccccc2C(=O)N2CCc3c([nH]c4ccccc34)C21 (stereo in doubt) [Evodiamine] — lower, 0.886
- COc1ccc2cc1Oc1ccc(cc1)C[C@H]1c3cc(c(OC)cc3CCN1C)Oc1c(O)c(OC)cc3c1[C@H](C2)N(C)CC3 [Fangchinoline] — higher, 1.06 ± 0.13
- O=C1c2cccc(O)c2C(=O)c2c(O)cccc21 [Antrapurol] — higher, 1.06

For `COc1cc2ncnc(Nc3cccc(Br)c3)c2cc1OC`, the cell viability was 0.975 and 1.03.
